Read-outs that look alike come from different tables or passages of the source.
What was measured:
[1] = target: T1, human LAG-3 expressed on cells (human, UniProt P18627 23-525); experiment: cell-based or functional assay
T1 sequence: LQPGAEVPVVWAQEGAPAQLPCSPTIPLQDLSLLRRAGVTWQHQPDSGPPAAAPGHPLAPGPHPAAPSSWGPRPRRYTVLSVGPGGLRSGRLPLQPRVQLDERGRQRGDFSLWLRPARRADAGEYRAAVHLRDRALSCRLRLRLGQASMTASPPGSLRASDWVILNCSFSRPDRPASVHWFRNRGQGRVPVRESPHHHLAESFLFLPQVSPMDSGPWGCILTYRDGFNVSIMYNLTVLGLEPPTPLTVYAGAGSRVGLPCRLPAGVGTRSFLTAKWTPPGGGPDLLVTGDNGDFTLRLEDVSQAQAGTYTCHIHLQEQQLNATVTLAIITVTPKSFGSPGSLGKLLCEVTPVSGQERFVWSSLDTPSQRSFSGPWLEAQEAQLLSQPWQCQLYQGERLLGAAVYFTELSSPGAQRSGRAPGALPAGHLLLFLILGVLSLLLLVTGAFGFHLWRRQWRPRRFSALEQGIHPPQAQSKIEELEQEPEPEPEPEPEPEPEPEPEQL

[2] = target: T1, human LAG-3 expressed on cells; experiment: cell-based or functional assay; remark: listed apart in the source
[3] = target: T2, human PD-1 expressed on cells (human, UniProt Q15116 25-288); experiment: cell-based or functional assay
[4] = target: T3, extracellular domain of PD-1 (1-199) fused to the PK subunit (human, UniProt Q15116 in part); experiment: cell-based or functional assay
[5] = target: T4, extracellular domain of LAG-3 (1-477) fused to the EA subunit (human, UniProt P18627 23-477); experiment: cell-based or functional assay
T4 sequence (looked up): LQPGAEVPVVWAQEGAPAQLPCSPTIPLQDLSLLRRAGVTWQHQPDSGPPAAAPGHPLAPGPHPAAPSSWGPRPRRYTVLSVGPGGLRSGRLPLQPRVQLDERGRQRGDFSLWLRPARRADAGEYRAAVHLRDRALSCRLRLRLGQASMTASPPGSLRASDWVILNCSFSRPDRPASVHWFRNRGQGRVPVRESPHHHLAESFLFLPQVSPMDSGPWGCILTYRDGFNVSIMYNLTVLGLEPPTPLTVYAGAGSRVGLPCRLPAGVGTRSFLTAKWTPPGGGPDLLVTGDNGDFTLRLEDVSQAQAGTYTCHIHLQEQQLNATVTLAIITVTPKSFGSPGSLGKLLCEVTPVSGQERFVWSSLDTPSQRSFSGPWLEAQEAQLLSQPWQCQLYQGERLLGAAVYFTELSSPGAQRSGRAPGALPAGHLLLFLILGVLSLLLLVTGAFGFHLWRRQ

[6] = target: T2, human PD-1 expressed on cells; experiment: flow cytometry on CHO-K1 cells expressing human PD-1; ABH0074 + PE goat anti-mouse
T2 sequence (Q15116 25-288 limits assumed): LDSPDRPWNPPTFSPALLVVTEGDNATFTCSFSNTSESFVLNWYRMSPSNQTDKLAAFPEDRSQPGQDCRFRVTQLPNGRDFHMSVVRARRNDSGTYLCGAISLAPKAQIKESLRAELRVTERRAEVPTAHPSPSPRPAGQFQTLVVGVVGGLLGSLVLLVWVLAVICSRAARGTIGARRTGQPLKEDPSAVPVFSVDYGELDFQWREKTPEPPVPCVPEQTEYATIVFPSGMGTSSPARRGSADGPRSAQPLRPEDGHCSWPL
Protocol: A Nanobody dilution series was prepared in assay buffer: PBS/10% FBS/0.05% sodium azide. 1×10⁵ cells/well were transferred to a 96-well V-bottom plate and resuspended in 100 μL Nanobody dilution.

[7] = target: T2, human PD-1 expressed on cells; experiment: flow cytometry competition: blockade of human PD-L1-hFc binding to CHO-K1 cells expressing human PD-1; PE goat anti-human IgG
Protocol: (§1) Ligand competition assays were performed on human PD-1 over-expressing CHO cells. A Nanobody dilution series was prepared in assay buffer: PBS/10% FBS/0.05% sodium azide. […] 2×10⁴ cells/well were seeded in V-bottom 96-well plates and resuspended in 200 μL/well of the Nanobody/ligand dilution. After 90 minutes incubation at 4° C., the cells were washed with 100 μL/well assay buffer and resuspended in 100 μL/well PE-labeled Goat anti-human IgG (Southern Biotech, 2043-09). Samples were incubated for 30 minutes at 4° C., washed, and resuspended in 100 μL/well of 5 nM TOPRO3 (LifeTechnologies, T3606) solution before analysis on FACS CANTO II (BD).

[8] = target: T2, human PD-1 expressed on cells; experiment: as above; remark: listed apart in the source
Protocol: as §1

[9] = target: T5, Rhesus Serum Albumin (rhesus, UniProt Q28522 17-600); experiment: SPR, Biacore T100; Rhesus Serum Albumin immobilised on CM5, Nanobody as analyte; Langmuir with mass transport
T5 construct: also called RhSA; rhesus albumin
Protocol: (§2) Kinetic analysis of the Nanobodies was performed by SPR technology, using the Biacore T100 instrument (GE Healthcare). […] After immobilization, surfaces were deactivated with 1M ethanolamine/HCl (pH 8.5). The flow rate during the sensor preparation was set on 5 μl/min.
(§3) Sensorgram processing and data analysis was performed with Biacore T100 Evaluation Software Version 2.0.4 (GE Healthcare). […] Processed curves were evaluated via fitting with the model ‘Langmuir with Mass Transport’.

[10] = target: T5, Rhesus Serum Albumin; experiment: as above; remark: listed apart in the source
T5 sequence (Q28522 17-600 limits assumed): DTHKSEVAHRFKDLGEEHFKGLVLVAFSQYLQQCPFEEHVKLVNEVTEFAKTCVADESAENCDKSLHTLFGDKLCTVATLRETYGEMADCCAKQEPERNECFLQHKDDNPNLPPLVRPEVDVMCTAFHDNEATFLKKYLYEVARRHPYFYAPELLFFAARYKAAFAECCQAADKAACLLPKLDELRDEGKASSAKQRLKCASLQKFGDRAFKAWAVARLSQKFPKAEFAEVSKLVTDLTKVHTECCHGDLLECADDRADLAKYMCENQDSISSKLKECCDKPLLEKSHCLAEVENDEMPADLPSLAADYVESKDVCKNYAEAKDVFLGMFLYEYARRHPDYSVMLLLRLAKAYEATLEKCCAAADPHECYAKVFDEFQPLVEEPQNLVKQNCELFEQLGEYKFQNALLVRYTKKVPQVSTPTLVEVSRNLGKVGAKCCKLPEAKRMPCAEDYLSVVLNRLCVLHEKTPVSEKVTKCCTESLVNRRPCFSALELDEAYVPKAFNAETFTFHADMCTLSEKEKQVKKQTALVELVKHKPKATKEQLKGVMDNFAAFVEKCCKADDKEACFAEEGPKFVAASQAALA
Protocol: as §2, §3

[11] = target: T2, human PD-1 expressed on cells; experiment: cell-based or functional assay; remark: listed apart in the source
[12] = target: MSA; experiment: SPR, Biacore T100; MSA block of Table G, Nanobody as analyte
Sequence of MSA (P07724 25-608): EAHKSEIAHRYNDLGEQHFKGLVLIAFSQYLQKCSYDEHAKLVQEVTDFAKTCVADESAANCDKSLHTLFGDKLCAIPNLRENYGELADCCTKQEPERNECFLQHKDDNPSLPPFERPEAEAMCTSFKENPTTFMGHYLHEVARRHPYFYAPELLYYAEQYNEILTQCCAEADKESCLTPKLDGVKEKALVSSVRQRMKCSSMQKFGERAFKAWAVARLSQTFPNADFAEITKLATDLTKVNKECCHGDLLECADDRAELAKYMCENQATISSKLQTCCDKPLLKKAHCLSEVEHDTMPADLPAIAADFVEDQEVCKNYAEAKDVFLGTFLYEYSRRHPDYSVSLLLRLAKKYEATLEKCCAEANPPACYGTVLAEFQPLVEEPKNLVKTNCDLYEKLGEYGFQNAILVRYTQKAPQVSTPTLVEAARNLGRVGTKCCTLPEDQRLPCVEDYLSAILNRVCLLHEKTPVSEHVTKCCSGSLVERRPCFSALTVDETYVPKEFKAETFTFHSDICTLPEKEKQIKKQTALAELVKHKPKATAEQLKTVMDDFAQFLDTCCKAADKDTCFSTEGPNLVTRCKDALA

[13] = target: T2, human PD-1 expressed on cells; experiment: flow cytometry competition: blockade of human PD-L2-hFc binding to CHO-K1 cells expressing human PD-1; PE goat anti-human IgG
Protocol: as §1

[14] = target: T3, extracellular domain of PD-1 (1-199) …; experiment: cell-based or functional assay; remark: listed apart in the source
[15] = target: T4, extracellular domain of LAG-3 (1-477) …; experiment: cell-based or functional assay; remark: listed apart in the source

Binder | EC50 (read off the curve), IL-2 MSD-signal [1] [nM] | EC50 (read off the curve), IL-2 pg/ml [2] [nM] | EC50 (read off the curve), IL-2 pg/ml [3] [nM] | EC50 (read off the curve), proximity assay RLU [4] [nM] | EC50 (read off the curve), proximity assay RLU [5] [nM] | EC50 (read off the curve) [6] [nM] | IC50 (read off the curve) [7] [nM] | IC50 (read off the curve) [8] [nM] | Kd [9] [nM] | koff [9] [s⁻¹] | kon [9] [M⁻¹ s⁻¹] | Kd [10] [nM] | kon [10] [M⁻¹ s⁻¹] | EC50 (read off the curve), IL-2 promoter luciferase RLU [11] [nM] | koff [12] [s⁻¹] | kon [12] [M⁻¹ s⁻¹] | IC50 (read off the curve) [13] [nM] | EC50 (read off the curve), proximity assay RLU [14] [nM] | EC50 (read off the curve), proximity assay RLU [15] [nM]
F023701017 (102C12 (E1D, L11V, A14P, A74S, K83R, I89L)-9GS-102C12 (L11V, A14P, A74S, K83R, I89L)-9GS-F0237611B09 (L11V, A14P, R41P, N43K, A62S, A74S, K83R, … (bispecific antibody) DVQLVESGGGVVQPGGSLRLSCAASGSIASIHAMGWFRQAPGKEREFVAVITWSGGITYYADSVKGRFTISRDNSKNTVYLQMNSLRPEDTALYYCAGDKHQSSWYDYWGQGTLVTVSSGGGGSGGGSEVQLVESGGGVVQPGGSLRLSCAASGSIASIHAMGWFRQAPGKEREFVAVITWSGGITYYADSVKGRFTISRDNSKNTVYLQMNSLRPEDTALYYCAGDKHQSSWYDYWGQGTLVTVSSGGGGSGGGSEVQLVESGGGVVQPGGSLRLSCAASGRTFSDYVMGWFRQAPGKEREFVAAISESGGRTHYADSVKGRFTISRDNSKNTLYLQMNSLRPEDTALYYCATTLLWWTSEYAPIKANDYDYWGQGTLVTVSSGGGGSGGGSEVQLVESGGGVVQPGGSLRLSCAASGRTFSDYVMGWFRQAPGKEREFVAAISESGGRTHYADSVKGRFTISRDNSKNTLYLQMNSLRPEDTALYYCATTLLWWTSEYAPIKANDYDYWGQGTLVTVSSGGGGSGGGS[about 120 residues not spelt out] | ~4 | ~0.6 | ~0.6 | ~0.1 | ~0.1 | – | – | – | – | – | – | – | – | – | – | – | – | – | –
F023700924 (1PD102C12 (E1D, L11V, A14P, A74S, K83R, I89L)-35GS-F0237611B09 (L11V, A14P, R41P, N43K, A62S, A74S, K83R, V89L)-35GS-ALB11002-A) (bispecific antibody, trivalent Nanobody fusion: one PD-1 module, one LAG-3 module, one anti-albumin module; Pichia or CHO expressed; also called F023700924-CHO-EXP1) DVQLVESGGGVVQPGGSLRLSCAASGSIASIHAMGWFRQAPGKEREFVAVITWSGGITYYADSVKGRFTISRDNSKNTVYLQMNSLRPEDTALYYCAGDKHQSSWYDYWGQGTLVTVSSGGGGSGGGGSGGGGSGGGGSGGGGSGGGGSGGGGSEVQLVESGGGVVQPGGSLRLSCAASGRTFSDYVMGWFRQAPGKEREFVAAISESGGRTHYADSVKGRFTISRDNSKNTLYLQMNSLRPEDTALYYCATTLLWWTSEYAPIKANDYDYWGQGTLVTVSSGGGGSGGGGSGGGGSGGGGSGGGGSGGGGSGGGGS[about 120 residues not spelt out] | – | ~1 | ~1 | – | – | ~3 | ~2 | ~2 | 120 | 0.0079 | 69000 | 120 | 69000 | ~0.7 | < 0.6 | > 500000 | ~1 | ~0.1 | ~0.1
F023700969 (102C12 (E1D, L11V, A14P, A74S, K83R, I89L)-20GS-F0237611B09 (L11V, A14P, R41P, N43K, A62S, A74S, K83R, V89L)-20GS-ALB11002-A) (bispecific antibody) DVQLVESGGGVVQPGGSLRLSCAASGSIASIHAMGWFRQAPGKEREFVAVITWSGGITYYADSVKGRFTISRDNSKNTVYLQMNSLRPEDTALYYCAGDKHQSSWYDYWGQGTLVTVSSGGGGSGGGGSGGGGSGGGGSEVQLVESGGGVVQPGGSLRLSCAASGRTFSDYVMGWFRQAPGKEREFVAAISESGGRTHYADSVKGRFTISRDNSKNTLYLQMNSLRPEDTALYYCATTLLWWTSEYAPIKANDYDYWGQGTLVTVSSGGGGSGGGGSGGGGSGGGGS[about 120 residues not spelt out] | – | ~1 | ~1 | – | – | – | – | – | – | – | – | – | – | ~1 | – | – | – | ~0.3 | ~0.3
F023700970 (102C12 (E1D, L11V, A14P, A74S, K83R, I89L)-9GS-F0237611B09 (L11V, A14P, R41P, N43K, A62S, A74S, K83R, V89L)-9GS-ALB11002-A) (bispecific antibody) DVQLVESGGGVVQPGGSLRLSCAASGSIASIHAMGWFRQAPGKEREFVAVITWSGGITYYADSVKGRFTISRDNSKNTVYLQMNSLRPEDTALYYCAGDKHQSSWYDYWGQGTLVTVSSGGGGSGGGSEVQLVESGGGVVQPGGSLRLSCAASGRTFSDYVMGWFRQAPGKEREFVAAISESGGRTHYADSVKGRFTISRDNSKNTLYLQMNSLRPEDTALYYCATTLLWWTSEYAPIKANDYDYWGQGTLVTVSSGGGGSGGGS[about 120 residues not spelt out] | – | ~1 | ~1 | – | – | – | – | – | – | – | – | – | – | ~1 | – | – | – | ~0.1 | ~0.1
F023701016 (102C12 (E1D, L11V, A14P, A74S, K83R, I89L)-20GS-102C12 (L11V, A14P, A74S, K83R, I89L)-20GS-F0237611B09 (L11V, A14P, R41P, N43K, A62S, A74S, K83R, … (bispecific antibody) DVQLVESGGGVVQPGGSLRLSCAASGSIASIHAMGWFRQAPGKEREFVAVITWSGGITYYADSVKGRFTISRDNSKNTVYLQMNSLRPEDTALYYCAGDKHQSSWYDYWGQGTLVTVSSGGGGSGGGGSGGGGSGGGGSEVQLVESGGGVVQPGGSLRLSCAASGSIASIHAMGWFRQAPGKEREFVAVITWSGGITYYADSVKGRFTISRDNSKNTVYLQMNSLRPEDTALYYCAGDKHQSSWYDYWGQGTLVTVSSGGGGSGGGGSGGGGSGGGGSEVQLVESGGGVVQPGGSLRLSCAASGRTFSDYVMGWFRQAPGKEREFVAAISESGGRTHYADSVKGRFTISRDNSKNTLYLQMNSLRPEDTALYYCATTLLWWTSEYAPIKANDYDYWGQGTLVTVSSGGGGSGGGGSGGGGSGGGGSEVQLVESGGGVVQPGGSLRLSCAASGRTFSDYVMGWFRQAPGKEREFVAAISESGGRTHYADSVKGRFTISRDNSKNTLYLQMNSLRPEDTALYYCATTLLWWTSEYAPIKANDYDYWGQGTLVTVSSGGGGSGGGGSGGGGSGGGGS[about 120 residues not spelt out] | ~4 | ~0.7 | ~0.7 | ~0.2 | ~0.2 | – | – | – | – | – | – | – | – | – | – | – | – | – | –

From US20260184783A1 (Merck Sharp & Dohme, published 2026)
